Test results as given in the RNAGym collection of RNA variant scans (doi:10.1073/pnas.2313332121).
This sample is rich in variants without activity.

B1: TPR 5TU (parent)
chain: GGAUCUUCUCGAUCUAACAAAAAAGACAAAUCUGCCACAAAGCUUGAGAGCAUCUUCGGAUGCAGAGGCGGCAGCCUUCGGUGGCGCGAUAGCGCCAACGUUCUCAACUAUGACACGCAAAACGCGUGCUCCGUUGAAUGGAGUUUAUCAUG

Variants of: B1
Assay: polymerase ribozyme fitness, log enrichment relative to wild type (log ratio); higher = more active; in vitro selection for triplet polymerase activity
Summary of the method: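 After PCR construction and transcription, each subunit's mutant library from a heterodimeric triplet polymerase ribozyme was annealed with a biotinylated primer, the partner subunit and triplets. Incubation was frozen, at −7 °C, and extended constructs were gel-excised, bound to streptavidin beads and amplified by RT-PCR, in one selection round done in triplicate. Fitness is the logarithm of a genotype's enrichment divided by that of the wild type, from inverse-variance-weighted replicate averages of Illumina-sequenced inputs and outputs. The base of the logarithm is 2, and genotypes needed ≥10 input reads and ≥1 read per output.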
With GGCUCUUCUCGAUCUAACAAAAUAGACAAAUCUGCCACAACGUUUGAGAGCAUCUUCGGAAGCCGAGGCGGCAGCCUUCGGUGGCGCGAUAGCGCUAACGUUCUCACCUAUGACGCGCAAAACGCGUGCUCCGUUGAAUGGAGUUUAUCAUG the “polymerase ribozyme fitness (log ratio)” value was at most -4.2.
With GGCUCUUCUCGAUCUAACAAAAUAGACAAAUCUGCCACAAAGCUUGAGAGCAUUUUCGGAUGCAGCGGCGGCAGCCUUCGGUGGCGCGAUAGCCCCAACGUUCUCAACUAUGACACGCAAAACGCGUGGUCCGUUGAAUGGAGUUUUUCAUG the “polymerase ribozyme fitness (log ratio)” value was at most -4.2.
In the case of GGCUCUUCUCGAUCUAACAAAAAGGACAAAUCUGCUACAAUGCUUGAGAGCAUCUUCGGAUGCAGAGGCGGUAGCCUUCGGUGGAGCGAUUGCGCCAACGUUCUCAACUAUGACACGCAAAACGCGUGCUCCGUUGAAUGGAGUUUAUCAAC, the “polymerase ribozyme fitness (log ratio)” value is reported as at most -4.2.
For GGCUCUUCUCGAUCUAACAAAAAUGACAAAUCUGCCACAAAGCUUGAGAGCAUCUUCGGAUGCAGAGGCGGCAGCCUUCGGUUGCGCGAUAAGGCCGACGUUCUCAACUAUGACACGCAAAACGCGUGCUCCGUUGAAUGGAGUUUAACAUG, the “polymerase ribozyme fitness (log ratio)” value was at most -4.2.
For GGCUCUUCUCGAUCUAACAAAAAAGCCAAAUCUGCCACAAAGCUUGCCAGCAUCUUCGGAUGCAGAGGCGGCAGCCUUCGGUGGCGCGAUAGCCCCAACGUUCUCAACUAUGACACGCAAAACGCGUGCUCCGUUGAAUGUAGUUUAUCAUG, the “polymerase ribozyme fitness (log ratio)” value was at most -4.2.
For GGCUCUUCUCGAUCUAACAAAAAAGACCAAUCUGCCAAAAAGCUUGAGAGCAUCUUCGGAUGCAGAGGCGGCAGCCUUCUGUGGCGCUAUAGCGCCAAAGUUCUCAACUAUGACACGCAAAACGCGUGCUCCGUUGAAUGGAGUUUAUCAUG, the “polymerase ribozyme fitness (log ratio)” value was at most -4.2.
With GGCUCUUCUCGAUCUAACAAAAAAGACCAAUCUGCCACAAAGCUUGAGAGCAUCUUCGGAAGCAGAGGCGGCAGCCUUCGGUGGUGCGUUAGCGCCAACGUUCUCAACUAUGACACGCAAAACGCAUGCUCCGUCGGAUGGAGUUUAUCAUG the “polymerase ribozyme fitness (log ratio)” value was at most -4.2.
In the case of GGCUCUUCUCGAUCUAACAAAAAAGACUAAUCUGCCACAAAGCUUGAGAGCAUCUUCUGAUGCAGAGGCGGCAUCAUUCGGUGGAGCGAUAGCGCCAACGUUCUCAACUAUGACACGCAAAACGCGUGCUCCGUUGAAUUGAGGUUAUCAUG, the “polymerase ribozyme fitness (log ratio)” value is reported as at most -4.2.
In the case of GGCUCUUCUCGAUCUAACAAAAAAGACACAUCUGACACAAAGCUUGAGAGCAUCUUCGGAUGCAGAGGCGGCAGCCUUCGGUGGCGCGAUAGCGCCAACGUUCUCAACUAUGACACGCAAAACGCGUGCUCCGUUGAAUGGAGUUUCUCAUG, the “polymerase ribozyme fitness (log ratio)” value is reported as at most -4.2.
In the case of GGCUCUUCUCGAUCUAACAAAAAAGACACAUCUGCCACAAAGCUUGAGAGCAUCUUCUGAUGCAGAGGCGGCAGCCUUCGGUGGGGCGAUAGCGCCAACGUUCUCAACUAUGACACGCAAAACGCGUGCUCCGUUGCAUGGAGUUUAUCAUA, the “polymerase ribozyme fitness (log ratio)” value is reported as at most -4.2.
In the case of GGCUCUUCUCGAUCUAACAAAAAAGACAACUCAGCCACAAAGCUUGAGAGCAUCUUCGGAUGCAGAGGCGGCAGCCUUCGGUGGCGCGCUAACGCCAACGUUCUCAACUAUGACAAGCAAAACGCGUGCUACGUCGAAUGGAGUUUAUCAUG, the “polymerase ribozyme fitness (log ratio)” value is reported as at most -4.2.
In the case of GGCUCUUCUCGAUCUAACAAAAAAGACAAGUCUGCCACAAAGCUUGAGGGCAUCUUCGGAUGCAGAGGCGGCAACCUUCGGUGGCUCGAUAGCGCCAACGUUCUCAACUAUGACACGCAAAACGCGUGCUCCGUUGAAUGGAUUUUAUCAUG, the “polymerase ribozyme fitness (log ratio)” value is reported as at most -4.2.
For GGCUCUUCUCGAUCUAACAAAAAAGACAAGUCUGCCAUAAAGUUUGAGAGCAUCUUCGGCUGCAGAGGCGGCAGCCUUCGGUGGCGCGAUAGCGCCAACGUUCUCAACUAUGACACGGAAAACGCGUGCUCCGUUGAAUGGAGUUUAUCAUG, the “polymerase ribozyme fitness (log ratio)” value was at most -4.2.
In the case of GGCUCUUCUCGAUCUAACAAAAAAGACAAAUCUGCCACAGAGCUUGAGAGCAUCUUCGGAUGCAGAGGCGGCAGCCUUCGGUGGCGCGAUAGCGUCAACGUUCUCAACUAUGACACGCAAGACGCGUGCUCCGUUGUAUGGUGUUUAUCAUG, the “polymerase ribozyme fitness (log ratio)” value is reported as at most -4.2.
In the case of GGCUCUUCUCGAUCUAACAAAAAAGACAAAUCUGCCACAAGGCUUGAGACCAGCUUCGGAUGCAGAUGCGGCAGCCUUCGGUGGCCCGAUAGCGCCAACGUUCUCAACUAUGACACGCAAAACGCGUUUUCCGUUGAAUGGAGUUGAUUAUG, the “polymerase ribozyme fitness (log ratio)” value is reported as at most -4.2.
For GGCUCUUCUCGAUCUAACAAAAAAGACAAAUCUGCCACAAGGCUUGAGAGCAUCUUCGGAUGCAGAGGCGGCAGCCUUCGGUGACGCGAUAGCGCCAACGUUCUCAACUAUGACACGCAAAACGCCUGCUCCGUUGAAUGGAGUUUAUCAUG, the “polymerase ribozyme fitness (log ratio)” value was -0.499.
For GGCUCUUCUCGAUCUAACAAAAAAGACAAAUCUGCCACAAAGCUUGCGAGCAUCUUCGCAUGCAGAGGCGGCAGCCUUCGGUGGCACGAUAGCGCCAACGUUCUCAACUAUGACACGCAAAACGCGUGCUCCGUUGAAUGGAGUUUAUCAUG, the “polymerase ribozyme fitness (log ratio)” value was -3.89.
With GGCUCUUCUCGAUCUAACAAAAAAGACAAAUCUGCCACAAAGCUUGGGAGCGUCUUCGGAUGCAGAGGCGGCAGCCUUCGGUGGCGUGAUAGCGCUAAUGUUCUCAACUAUGACACGCAAAACACGUGCUCCGUUGAAUGGAGUUUAUCAUG the “polymerase ribozyme fitness (log ratio)” value was -4.19.
For GGCUCUUCUCGAUCUAACAAAAAAGACAAAUCUGCCACAAAGCUUGUGAGCAUCUUCGGAUGCAGAGGCGGCAGCCUUCGGUGGCGCGAUAGCGCCAACGUUCUCAACUAUGACACGCAAAACGCGUGCUCCGUUGAAUGGAGUUUAUCAUG, the “polymerase ribozyme fitness (log ratio)” value was -0.813.
